Experimental data published in the supplement of paper PMC11417369.
Some of the results follow.

System: PF3D7_0420300 AP2 domain 1 (GST-tagged)
Assay: gcPBM binding intensity (ln(normalized median fluorescence intensity)); higher = stronger DNA binding
How it was run: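 Each value is the highest Masliner-normalised natural-log median intensity across replicate spots of either orientation of a probe. The probes were primer-extended double-stranded 36-bp intergenic genomic sequences on an Agilent 4 × 180k array, alongside negative controls, exposed for 1 h to GST-tagged P. falciparum DNA-binding domains expressed in E. coli. Bound protein was picked up with Alexa488 anti-GST antibody and scanned at 488 nm.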

Row | Sequence | gcPBM binding intensity (ln)
1 | ATATATATATATATAATACACACTTATGAAATGTCT [CACACA_site1827] | 9.45
2 | TTACACATATTTTTAATTATTCTGAATTCAAAAAAA [CACACA_negctrl_site1706] | 8.84
3 | GTAATATTAAAATATACACACATAGAATATATATAT [CACACA_site4391] | 9.58
4 | ATAATCATAAAATAAACACACATATATAAATATATT [CACACA_site276] | 9.53
5 | TTTTTGTAAACCTACTTCATAATTATTTATATCTAT [XGTACX_negctrl_site599] | 9.33
6 | CTTTTGTATATTATATGTACACACAATAAGTTAATA [XGTACX_site1684] | 9.44
7 | ACATATATTTATATATGTACATATGATATATACATA [XGTACX_site6122] | 9.12
8 | AATTAACAAAAACACACACACACACCCACAAAAAAA [CACACA_site517] | 10.1
9 | TACATATAAACAATAACACACACCTAGGTACATGGA [CACACA_site8178] | 9.82
10 | AGGCTATAATACCATACACACATTTATAAAATAACA [CACACA_site6990] | 9.61
11 | TAAAAATTTGATCAAACACACGTTGCATAAATTATA [CACACA_site6040] | 9.29
12 | AAGAAAAAAAAAAAAACACACATATATTTATTTATA [CACACA_site7042] | 9.23
13 | TATACACATAGACACACACACAAAAAAAAAAAAAAA [CACACA_site6338] | 9.73
14 | GAAAGAAAAAATGATGAATAGAGATCAAATCTATAT [XGTACX_negctrl_site28] | 9.26
15 | TAATTGTACACATGCACACACAAATATTATAGATGT [CACACA_site6528] | 9.8
16 | TTGAGAAAAATTAATGGTACACATATTATAAGTATA [XGTACX_site6539] | 9.19
17 | TGTATAACATTTAGGTGTACAATTATATATAATATA [XGTACX_site8131] | 9.19
18 | TGACATATTATTAGGTGGTCACGTCTCCACGTCAAG [XGTACX_site7943] | 9.11
19 | ATTGTTAAATATAATACACACGTTTTTAAAAATATA [CACACA_site5239] | 9.19

Row | Sequence | gcPBM binding intensity (ln)
20 | TAAAAATAAATAAATACATGCACCAAAAATAAATTT [TGCATGCA_site801] | 9.57
21 | AAAAAAAAAAAACATACACACACATATATATATATA [CACACA_site8452] | 9.9
22 | ATTGCCATTGTTAATGCATGTAACAATTCAGCTCAT [TGCATGCA_site56] | 9.1
23 | AAAATTATTTAGTAAGTGCAAAAAAAAAAAAAAAAA | 8.78
24 | AATTTGATTATAAATTGTACATATATATATTAAAAG [XGTACX_site5461] | 9.16
25 | TAAATAAAAAGACACACACACATATTTATATTTATA [CACACA_site7135] | 10
26 | ATATTAAAAAGGAAATGTACGTAATGAAGATCAAGT [XGTACX_site3138] | 9.77
27 | TAAATTGGTGCAAAGTGTACATATATATCTTTCCTA [XGTACX_site5458] | 9.22
28 | GAGAAAAATATATACACACACATAAATATATACATA [CACACA_site1895] | 9.92
29 | AAATATCAACTCAAATGTACAAATCACAAAAATGTA [XGTACX_site5344] | 9.31
30 | ATATATGATGTATTTGTGCACATATATATATTATTA [GTGCAC_site9471] | 9.3
31 | AAACGGGAGAAATAAAAATAAAAATAATAAAACAAA [XGTACX_negctrl_site586] | 9.43
32 | TATACTCATGGACACACACACATACACAGACATACA [CACACA_site5024] | 9.92
33 | TTCATATATAATTGTACACACAAAAACGACATTGTG [CACACA_site2074] | 9.54
34 | GGAAATAAAATTAAATGTACGAAAACTCATTAAATT [XGTACX_site4274] | 9.22
35 | TAAATATGAGGGAACACACACATGATATATAAATTC [CACACA_site2400] | 9.86
36 | ATTGTTACATAAAATGCACACTTTCAAATATGCTAA [CACACA_site5600] | 9.21
37 | ATATATACCTATATTACACACTTCTTATTCTAAGAA [CACACA_site7421] | 9.24
38 | AGGGTTCATATATTAACACACACATACATATTATAT [CACACA_site8959] | 9.81

Row | Sequence | gcPBM binding intensity (ln)
39 | TATACACATATATATAGTACATATATAATTTACTAT [XGTACX_site1849] | 9.25
40 | AGTATTCTAATTTTTAAACACACAAATATAAATAAG [CACACA_site9029] | 9.36
41 | TATTTATTAAGACACACACACACACGCACAAAATAA [CACACA_site6254] | 10.2
42 | TGAAATTAAATATATACACACATATATATTTATATG [CACACA_site3516] | 9.3
43 | AAACAAAAGGAAAACATATATATATTAAATGTATAT [CACACA_negctrl_site1663] | 9.44
44 | ATTTAGAATGTTCCTACACACCAAATTTAAGGGTGC [CACACA_site5320] | 9.3
45 | ATTTATATTCCAATATGTACATATTTTCGTATAACC [XGTACX_site8507] | 9.26
46 | TTTTTTTTTCTCCATACACACTTGATAAAACTTTTT [CACACA_site4512] | 9.29
47 | ATTACAAATTCTTTCAGTACATATAAAGAAAAAAAT [XGTACX_site7786] | 9.19
48 | GCAAAATAACAATGTTACACTTATAAAATTGAGGCA [GTGCAC_negctrl_site68] | 9.12
49 | TTAAAAAACATTTGAACATGCAATTGTATATGTAGA [TGCATGCA_site334] | 9.19
50 | TTAATACAAATAAAAAGTACAAGTATCGAACTACTA [XGTACX_site6308] | 9.28
51 | TTTTTAGTAACATATAGTACATATATATATATATGT [XGTACX_site4780] | 9.2
52 | TTATTTTTTCTTCAAATGTGAATTATTCATTTATTT [TGCATGCA_negctrl_site545] | 9.16
53 | ATAATATGAAACTCGTACGAGGTTGTCCCAAATATA [CACACA_negctrl_site1350] | 9.42
54 | GATATGTAAATAATATGTACATATTTATATTGTATT [XGTACX_site4052] | 9.36
55 | TTTAAAGGTGATAAAACACACGATTTAGAAATGTAT [CACACA_site3161] | 9.35
56 | ATATATTATCAACTTACACACAGAAAAATATAATAA [CACACA_site293] | 9.75
